# Measurements taken from the supplement of paper PMC8728848.
# The other results are listed elsewhere or left out.
# B1: PEB3 Cj0289c (Campylobacter jejuni), Q9PIK7 (protein)
# chain: MDVNLYGPGGPHTALKDIANKYSEKTGVKVNVNFGPQATWFEKAKKDADILFGASDQSALAIASDFGKDFNVSKIKPLYFREAIILTQKGNPLKIKGLKDLANKKVRIVVPEGAGKSNTSGTGVWEDMIGRTQDIKTIQNFRNNIVAFVPNSGSARKLFAQDQADAWITWIDWSKSNPDIGTAVAIEKDLVVYRTFNVIAKEGASKETQDFIAYLSSKEAKEIFKKYGWRE
# How the values were obtained:
# Assay in all cases: glycan array binding signal (z-score within array); higher = stronger binding
# Conditions in all cases: glycan notation: IUPAC condensed, linker removed
# [1] = target: Neu5Ac(a2-3)Gal(b1-3)[Neu5Ac(a2-6)]GalNAc
# Procedure, shortened: (§1)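 Columns mapping to the same glycan were averaged after glycan names were converted to IUPAC-condensed notation. The data come from 3228 arrays in the Consortium for Functional Glycomics database, limited to those with an available protein sequence. Binding is reported as a within-array Z-score averaged across arrays of one protein sequence and across linkers.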
# Neu5Ac(a2-3)Gal(b1-4)Glc = target: Neu5Ac(a2-3)Gal(b1-4)Glc
# Procedure, shortened: as §1
# [2] = target: Neu5Ac(a2-3)Gal(b1-4)GlcNAc
# Procedure, shortened: as §1
# [3] = target: Neu5Ac(a2-3)Gal(b1-4)GlcNAc(b1-3)Gal(b1-3)GlcNAc
# Procedure, shortened: as §1
# [4] = target: Neu5Ac(a2-3)Gal(b1-4)GlcNAc(b1-3)Gal(b1-4)GlcNAc
# Procedure, shortened: as §1
# [5] = target: Neu5Ac(a2-3)Gal(b1-4)GlcNAc(b1-3)Gal(b1-4)GlcNAc(b1-3)Gal(b1-4)GlcNAc
# Procedure, shortened: as §1
# [6] = target: Neu5Ac(a2-3)Gal(b1-4)GlcNAc(b1-3)Gal(b1-4)[Fuc(a1-3)]GlcNAc
# Procedure, shortened: as §1
# [7] = target: Neu5Ac(a2-3)Gal(b1-4)GlcNAc(b1-6)[Gal(b1-3)]GalNAc
# Procedure, shortened: as §1
# [8] = target: Neu5Ac(a2-3)Gal(b1-4)GlcNAc6S
# Procedure, shortened: as §1
# [9] = target: Neu5Ac(a2-3)Gal(b1-4)[Fuc(a1-3)]GlcNAc
# Procedure, shortened: as §1
# [10] = target: Neu5Ac(a2-3)Gal(b1-4)[Fuc(a1-3)]GlcNAc(b1-3)Gal
# Procedure, shortened: as §1
# [11] = target: Neu5Ac(a2-3)Gal(b1-4)[Fuc(a1-3)]GlcNAc(b1-3)Gal(b1-4)GlcNAc
# Procedure, shortened: as §1
# [12] = target: Neu5Ac(a2-3)Gal(b1-4)[Fuc(a1-3)]GlcNAc(b1-3)Gal(b1-4)[Fuc(a1-3)]GlcNAc(b1-3)Gal(b1-4)[Fuc(a1-3)]GlcNAc
# Procedure, shortened: as §1
# [13] = target: Neu5Ac(a2-3)Gal(b1-4)[Fuc(a1-3)]GlcNAc6S
# Procedure, shortened: as §1
# [14] = target: Neu5Ac(a2-3)Gal6S(b1-4)GlcNAc
# Procedure, shortened: as §1
# [15] = target: Neu5Ac(a2-3)Gal6S(b1-4)[Fuc(a1-3)]GlcNAc
# Procedure, shortened: as §1
# Neu5Ac(a2-3)GalNAc = target: Neu5Ac(a2-3)GalNAc
# Procedure, shortened: as §1
# [16] = target: Neu5Ac(a2-3)GalNAc(b1-4)GlcNAc
# Procedure, shortened: as §1
# [17] = target: Neu5Ac(a2-3)[GalNAc(b1-4)]Gal(b1-4)Glc
# Procedure, shortened: as §1
# [18] = target: Neu5Ac(a2-3)[GalNAc(b1-4)]Gal(b1-4)GlcNAc
# Procedure, shortened: as §1
# [19] = target: Neu5Ac(a2-3)[Neu5Ac(a2-6)]GalNAc
# Procedure, shortened: as §1
# [20] = target: Neu5Ac(a2-6)Gal(b1-4)GlcNAc
# Procedure, shortened: as §1
# [21] = target: Neu5Ac(a2-6)Gal(b1-4)GlcNAc(b1-2)Man(a1-3)[Neu5Ac(a2-6)Gal(b1-4)GlcNAc(b1-2)Man(a1-6)]Man(b1-4)GlcNAc(b1-4)GlcNAc
# Procedure, shortened: as §1
# [22] = target: Neu5Ac(a2-6)Gal(b1-4)GlcNAc(b1-3)Gal(b1-4)GlcNAc
# Procedure, shortened: as §1
# [23] = target: Neu5Ac(a2-6)Gal(b1-4)GlcNAc(b1-3)Gal(b1-4)[Fuc(a1-3)]GlcNAc(b1-3)Gal(b1-4)[Fuc(a1-3)]GlcNAc
# Procedure, shortened: as §1
# [24] = target: Neu5Ac(a2-6)Gal(b1-4)GlcNAc6S
# Procedure, shortened: as §1
# Neu5Ac(a2-6)GalNAc = target: Neu5Ac(a2-6)GalNAc
# Procedure, shortened: as §1
# [25] = target: Neu5Ac(a2-6)GalNAc(b1-4)GlcNAc
# Procedure, shortened: as §1
# Neu5Ac(a2-8)Neu5Ac = target: Neu5Ac(a2-8)Neu5Ac
# Procedure, shortened: as §1
# [26] = target: Neu5Ac(a2-8)Neu5Ac(a2-3)Gal(b1-4)Glc
# Procedure, shortened: as §1
# [27] = target: Neu5Ac(a2-8)Neu5Ac(a2-3)[GalNAc(b1-4)]Gal(b1-4)Glc
# Procedure, shortened: as §1
# [28] = target: Neu5Ac(a2-8)Neu5Ac(a2-8)Neu5Ac
# Procedure, shortened: as §1
# [29] = target: Neu5Ac(a2-8)Neu5Ac(a2-8)Neu5Ac(a2-3)Gal(b1-4)Glc
# Procedure, shortened: as §1
# [30] = target: Neu5Ac(a2-8)Neu5Ac(a2-8)Neu5Ac(a2-3)[GalNAc(b1-4)]Gal(b1-4)Glc
# Procedure, shortened: as §1
# [31] = target: Neu5Ac(a2-8)Neu5Ac(a2-8)Neu5Ac(a2-8)Neu5Ac(a2-3)[GalNAc(b1-4)]Gal(b1-4)Glc
# Procedure, shortened: as §1
# [32] = target: Neu5Ac9Ac(a2-6)Gal(b1-4)GlcNAc
# Procedure, shortened: as §1
# [33] = target: Neu5Gc(a2-3)Gal(b1-3)GlcNAc
# Procedure, shortened: as §1
# [34] = target: Neu5Gc(a2-3)Gal(b1-3)[Fuc(a1-4)]GlcNAc
# Procedure, shortened: as §1
# Neu5Gc(a2-3)Gal(b1-4)Glc = target: Neu5Gc(a2-3)Gal(b1-4)Glc
# Procedure, shortened: as §1
# [35] = target: Neu5Gc(a2-3)Gal(b1-4)GlcNAc
# Procedure, shortened: as §1
# [36] = target: Neu5Gc(a2-3)Gal(b1-4)[Fuc(a1-4)]GlcNAc
# Procedure, shortened: as §1
# [37] = target: Neu5Gc(a2-6)Gal(b1-4)GlcNAc
# Procedure, shortened: as §1
# Neu5Gc(a2-6)GalNAc = target: Neu5Gc(a2-6)GalNAc
# Procedure, shortened: as §1
binder,measurement,setting,value
B1,glycan array binding signal (z-score),[1],-0.436
same,glycan array binding signal (z-score),Neu5Ac(a2-3)Gal(b1-4)Glc,-0.417
same,glycan array binding signal (z-score),[2],-0.45
same,glycan array binding signal (z-score),[3],-0.553
same,glycan array binding signal (z-score),[4],-0.454
same,glycan array binding signal (z-score),[5],-0.516
same,glycan array binding signal (z-score),[6],-0.421
same,glycan array binding signal (z-score),[7],-0.465
same,glycan array binding signal (z-score),[8],-0.217
same,glycan array binding signal (z-score),[9],-0.392
same,glycan array binding signal (z-score),[10],-0.473
same,glycan array binding signal (z-score),[11],-0.012
same,glycan array binding signal (z-score),[12],-0.39
same,glycan array binding signal (z-score),[13],-0.251
same,glycan array binding signal (z-score),[14],-0.159
same,glycan array binding signal (z-score),[15],-0.472
same,glycan array binding signal (z-score),Neu5Ac(a2-3)GalNAc,-0.456
same,glycan array binding signal (z-score),[16],-0.062
same,glycan array binding signal (z-score),[17],-0.413
same,glycan array binding signal (z-score),[18],-0.332
same,glycan array binding signal (z-score),[19],-0.222
same,glycan array binding signal (z-score),[20],-0.267
same,glycan array binding signal (z-score),[21],-0.298
same,glycan array binding signal (z-score),[22],-0.386
same,glycan array binding signal (z-score),[23],-0.373
same,glycan array binding signal (z-score),[24],-0.182
same,glycan array binding signal (z-score),Neu5Ac(a2-6)GalNAc,-0.27
same,glycan array binding signal (z-score),[25],-0.513
same,glycan array binding signal (z-score),Neu5Ac(a2-8)Neu5Ac,-0.303
same,glycan array binding signal (z-score),[26],-0.434
same,glycan array binding signal (z-score),[27],-0.28
same,glycan array binding signal (z-score),[28],-0.49
same,glycan array binding signal (z-score),[29],-0.456
same,glycan array binding signal (z-score),[30],-0.373
same,glycan array binding signal (z-score),[31],-0.443
same,glycan array binding signal (z-score),[32],-0.081
same,glycan array binding signal (z-score),[33],-0.419
same,glycan array binding signal (z-score),[34],-0.34
same,glycan array binding signal (z-score),Neu5Gc(a2-3)Gal(b1-4)Glc,-0.407
same,glycan array binding signal (z-score),[35],-0.272
same,glycan array binding signal (z-score),[36],-0.328
same,glycan array binding signal (z-score),[37],-0.317
same,glycan array binding signal (z-score),Neu5Gc(a2-6)GalNAc,-0.401
